# In the supplement of paper PMC8728848:
# This is one part of the list.
# What was measured:
# Test in all cases: glycan array binding signal (z-score within array); higher = stronger binding
# Details in all cases: glycan notation: IUPAC condensed, linker removed
# [1] = target: Neu5Ac(a2-6)Gal(b1-4)GlcNAc(b1-3)Gal(b1-4)GlcNAc(b1-3)GalNAc
# How it was run: (§1)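 Columns mapping to the same glycan were averaged after glycan names were converted to IUPAC-condensed notation. The data come from 3228 arrays in the Consortium for Functional Glycomics database, limited to those with an available protein sequence. Binding is reported as a within-array Z-score averaged across arrays of one protein sequence and across linkers.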
# [2] = target: Neu5Ac(a2-6)Gal(b1-4)GlcNAc(b1-3)Gal(b1-4)GlcNAc(b1-3)[Neu5Ac(a2-6)Gal(b1-4)GlcNAc(b1-3)Gal(b1-4)GlcNAc(b1-6)]GalNAc
# How it was run: as §1
# [3] = target: Neu5Ac(a2-6)Gal(b1-4)GlcNAc(b1-3)Gal(b1-4)GlcNAc(b1-6)[Gal(b1-3)]GalNAc
# How it was run: as §1
# [4] = target: Neu5Ac(a2-6)Gal(b1-4)GlcNAc(b1-3)Gal(b1-4)[Fuc(a1-3)]GlcNAc(b1-3)Gal(b1-4)[Fuc(a1-3)]GlcNAc
# How it was run: as §1
# [5] = target: Neu5Ac(a2-6)Gal(b1-4)GlcNAc(b1-3)GalNAc
# How it was run: as §1
# [6] = target: Neu5Ac(a2-6)Gal(b1-4)GlcNAc(b1-3)[Neu5Ac(a2-6)Gal(b1-4)GlcNAc(b1-6)]GalNAc
# How it was run: as §1
# [7] = target: Neu5Ac(a2-6)Gal(b1-4)GlcNAc(b1-6)GalNAc
# How it was run: as §1
# [8] = target: Neu5Ac(a2-6)Gal(b1-4)GlcNAc(b1-6)[Gal(b1-3)GlcNAc(b1-3)]Gal(b1-4)Glc
# How it was run: as §1
# [9] = target: Neu5Ac(a2-6)Gal(b1-4)GlcNAc(b1-6)[Gal(b1-3)]GalNAc
# How it was run: as §1
# [10] = target: Neu5Ac(a2-6)Gal(b1-4)GlcNAc6S
# How it was run: as §1
# Neu5Ac(a2-6)GalNAc = target: Neu5Ac(a2-6)GalNAc
# How it was run: as §1
# [11] = target: Neu5Ac(a2-6)GalNAc(b1-4)GlcNAc
# How it was run: as §1
# [12] = target: Neu5Ac(a2-6)GalNAc(b1-4)GlcNAc6S
# How it was run: as §1
# [13] = target: Neu5Ac(a2-6)GlcNAc(b1-4)GlcNAc
# How it was run: as §1
# [14] = target: Neu5Ac(a2-6)GlcNAc(b1-4)GlcNAc(b1-4)GlcNAc
# How it was run: as §1
# Neu5Ac(a2-8)Neu5Ac = target: Neu5Ac(a2-8)Neu5Ac
# How it was run: as §1
# [15] = target: Neu5Ac(a2-8)Neu5Ac(a2-3)Gal(b1-3)GalNAc(b1-4)[Neu5Ac(a2-3)]Gal(b1-4)Glc
# How it was run: as §1
# [16] = target: Neu5Ac(a2-8)Neu5Ac(a2-3)Gal(b1-3)GalNAc(b1-4)[Neu5Ac(a2-8)Neu5Ac(a2-3)]Gal(b1-4)Glc
# How it was run: as §1
# [17] = target: Neu5Ac(a2-8)Neu5Ac(a2-3)Gal(b1-4)Glc
# How it was run: as §1
# [18] = target: Neu5Ac(a2-8)Neu5Ac(a2-3)Gal(b1-4)GlcNAc
# How it was run: as §1
# [19] = target: Neu5Ac(a2-8)Neu5Ac(a2-3)[Gal(b1-3)GalNAc(b1-4)]Gal(b1-4)Glc
# How it was run: as §1
# [20] = target: Neu5Ac(a2-8)Neu5Ac(a2-3)[GalNAc(b1-4)]Gal(b1-4)Glc
# How it was run: as §1
# [21] = target: Neu5Ac(a2-8)Neu5Ac(a2-8)Neu5Ac
# How it was run: as §1
# [22] = target: Neu5Ac(a2-8)Neu5Ac(a2-8)Neu5Ac(a2-3)Gal(b1-4)Glc
# How it was run: as §1
# [23] = target: Neu5Ac(a2-8)Neu5Ac(a2-8)Neu5Ac(a2-3)[Gal(b1-3)GalNAc(b1-4)]Gal(b1-4)Glc
# How it was run: as §1
# [24] = target: Neu5Ac(a2-8)Neu5Ac(a2-8)Neu5Ac(a2-3)[GalNAc(b1-4)]Gal(b1-4)Glc
# How it was run: as §1
# [25] = target: Neu5Ac(a2-8)Neu5Ac(a2-8)Neu5Ac(a2-8)Neu5Ac(a2-3)[GalNAc(b1-4)]Gal(b1-4)Glc
# How it was run: as §1
# [26] = target: Neu5Ac(a2-8)Neu5Gc(a2-3)Gal(b1-4)GlcNAc
# How it was run: as §1
# [27] = target: Neu5Ac(b2-6)Gal(b1-4)GlcNAc
# How it was run: as §1
# Neu5Ac(b2-6)GalNAc = target: Neu5Ac(b2-6)GalNAc
# How it was run: as §1
# [28] = target: Neu5Ac9Ac(a2-3)Gal(b1-3)GlcNAc
# How it was run: as §1
# [29] = target: Neu5Ac9Ac(a2-3)Gal(b1-4)GlcNAc
# How it was run: as §1
# [30] = target: Neu5Ac9Ac(a2-6)Gal(b1-4)GlcNAc
# How it was run: as §1
# [31] = target: Neu5Gc(a2-3)Gal(b1-3)GlcNAc
# How it was run: as §1
# [32] = target: Neu5Gc(a2-3)Gal(b1-3)[Fuc(a1-4)]GlcNAc
# How it was run: as §1
# Neu5Gc(a2-3)Gal(b1-4)Glc = target: Neu5Gc(a2-3)Gal(b1-4)Glc
# How it was run: as §1
# [33] = target: Neu5Gc(a2-3)Gal(b1-4)GlcNAc
# How it was run: as §1
# [34] = target: Neu5Gc(a2-3)Gal(b1-4)GlcNAc(b1-3)Gal(b1-4)GlcNAc(b1-2)Man(a1-3)[Neu5Gc(a2-3)Gal(b1-4)GlcNAc(b1-3)Gal(b1-4)GlcNAc(b1-2)Man(a1-6)]Man(b1-4)GlcNAc(b1-4)GlcNAc
# How it was run: as §1
# [35] = target: Neu5Gc(a2-3)Gal(b1-4)[Fuc(a1-3)]GlcNAc
# How it was run: as §1
# [36] = target: Neu5Gc(a2-6)Gal(b1-4)GlcNAc
# How it was run: as §1
# Neu5Gc(a2-6)GalNAc = target: Neu5Gc(a2-6)GalNAc
# How it was run: as §1
# [37] = target: Neu5Gc(a2-8)Neu5Ac(a2-3)Gal(b1-4)GlcNAc
# How it was run: as §1
# [38] = target: Neu5Gc(a2-8)Neu5Gc(a2-3)Gal(b1-4)GlcNAc
# How it was run: as §1
# [39] = target: Neu5Gc(a2-8)Neu5Gc(a2-3)Gal(b1-4)GlcNAc(b1-3)Gal(b1-4)GlcNAc
# How it was run: as §1
# [40] = target: Neu5Gc(a2-8)Neu5Gc(a2-6)Gal(b1-4)GlcNAc
# How it was run: as §1
binder,measurement,setting,value
RBMC1 (Vibrio cholerae) (protein) QQSQRVVTADNLMYLRSGFAIDAIGTTVNNLVGGPVQGTNGGVLRAPIALDQLQSVEVTSGLYNWGGYHIVAIKFTMKDGSSVLLGSTHYASNKKVETYTVPQGKRIKQINVWTGGWLVEGFQFVY,glycan array binding signal (z-score),[1],-0.164
same,glycan array binding signal (z-score),[2],-0.075
same,glycan array binding signal (z-score),[3],-0.273
same,glycan array binding signal (z-score),[4],-0.205
same,glycan array binding signal (z-score),[5],-0.423
same,glycan array binding signal (z-score),[6],-0.263
same,glycan array binding signal (z-score),[7],0.748
same,glycan array binding signal (z-score),[8],-0.409
same,glycan array binding signal (z-score),[9],0.257
same,glycan array binding signal (z-score),[10],-0.22
same,glycan array binding signal (z-score),Neu5Ac(a2-6)GalNAc,-0.35
same,glycan array binding signal (z-score),[11],-0.426
same,glycan array binding signal (z-score),[12],-0.277
same,glycan array binding signal (z-score),[13],-0.369
same,glycan array binding signal (z-score),[14],-0.146
same,glycan array binding signal (z-score),Neu5Ac(a2-8)Neu5Ac,0.122
same,glycan array binding signal (z-score),[15],-0.379
same,glycan array binding signal (z-score),[16],-0.293
same,glycan array binding signal (z-score),[17],-0.226
same,glycan array binding signal (z-score),[18],-0.382
same,glycan array binding signal (z-score),[19],-0.275
same,glycan array binding signal (z-score),[20],-0.339
same,glycan array binding signal (z-score),[21],-0.256
same,glycan array binding signal (z-score),[22],-0.137
same,glycan array binding signal (z-score),[23],-0.28
same,glycan array binding signal (z-score),[24],-0.21
same,glycan array binding signal (z-score),[25],-0.417
same,glycan array binding signal (z-score),[26],-0.314
same,glycan array binding signal (z-score),[27],-0.304
same,glycan array binding signal (z-score),Neu5Ac(b2-6)GalNAc,-0.428
same,glycan array binding signal (z-score),[28],-0.194
same,glycan array binding signal (z-score),[29],-0.303
same,glycan array binding signal (z-score),[30],-0.373
same,glycan array binding signal (z-score),[31],-0.224
same,glycan array binding signal (z-score),[32],-0.039
same,glycan array binding signal (z-score),Neu5Gc(a2-3)Gal(b1-4)Glc,-0.097
same,glycan array binding signal (z-score),[33],-0.337
same,glycan array binding signal (z-score),[34],1.56
same,glycan array binding signal (z-score),[35],-0.205
same,glycan array binding signal (z-score),[36],-0.349
same,glycan array binding signal (z-score),Neu5Gc(a2-6)GalNAc,-0.17
same,glycan array binding signal (z-score),[37],-0.406
same,glycan array binding signal (z-score),[38],-0.358
same,glycan array binding signal (z-score),[39],-0.205
same,glycan array binding signal (z-score),[40],-0.356
